Measurements taken from PubChem BioAssay (NCI).
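Five concentrations, 48 hours, 96-well plates. GI50 marks 50% less growth.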 The source holds more than one record for some entries. They are shown here; other results are not. An entry can have further records. For part of these data: The tests behind the records often covered other concentration ranges, which the source does not state; some values may only mark the edge of a range. What stands in brackets tells the records apart. Letters count within one entry. For part of these data: Results that share an entry are repeats in other runs, samples, wells, individuals or studies.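 At the TGI there is no net growth.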

Experiments:
Test in all cases: NCI tumour cell line growth inhibition, 48 h
[1] = test system: CAKI-1 renal
[2] = test system: HL-60(TB) leukemia
[3] = test system: IGROV1 ovarian
[4] = test system: U251 CNS
[5] = test system: SNB-75 CNS
[6] = test system: MALME-3M melanoma
[7] = test system: SK-MEL-28 melanoma
[8] = test system: A498 renal
[9] = test system: EKVX NSCLC
[10] = test system: SF-295 CNS
[11] = test system: HOP-92 NSCLC
[12] = test system: RXF 393 renal
[13] = test system: SNB-78 CNS
[14] = test system: SK-OV-3 ovarian
[15] = test system: SF-268 CNS
[16] = test system: NCI-H522 lung
[17] = test system: OVCAR-8 ovarian
[18] = test system: SK-MEL-2 melanoma
[19] = test system: BT-549 breast
[20] = test system: NCI-H23 lung
[21] = test system: HT29 colon
[22] = test system: MOLT-4 leukemia
[23] = test system: NCI-H460 lung
[24] = test system: UACC-257 melanoma
[25] = test system: SW-620 colon
[26] = test system: NCI/ADR-RES ovarian
[27] = test system: MDA-MB-231 breast
[28] = test system: CCRF-CEM leukemia
[29] = test system: COLO 205 colon
[30] = test system: OVCAR-4 ovarian
[31] = test system: DMS 273 small cell lung
[32] = test system: UACC-62 melanoma
[33] = test system: P388 leukemia
[34] = test system: LOX IMVI melanoma
[35] = test system: DMS 114 small cell lung
[36] = test system: SN12C renal
[37] = test system: UO-31 renal
[38] = test system: KM20L2 colon
[39] = test system: M14 melanoma
[40] = test system: HOP-62 NSCLC
[41] = test system: HCC-2998 colon
[42] = test system: OVCAR-3 ovarian
[43] = test system: M19-MEL melanoma
[44] = test system: NCI-H226 lung
[45] = test system: RPMI-8226 leukemia
[46] = test system: A549 NSCLC
[47] = test system: SNB-19 CNS
[48] = test system: SK-MEL-5 melanoma
[49] = test system: HS 578T breast
[50] = test system: OVCAR-5 ovarian
[51] = test system: K-562 leukemia
[52] = test system: HCT-15 colon
[53] = test system: SF-539 CNS
[54] = test system: XF 498 CNS
[55] = test system: DU-145 prostate
[56] = test system: HCT-116 colon
[57] = test system: 786-0 renal
[58] = test system: PC-3 prostate
[59] = test system: DLD-1 colon
[60] = test system: SN12K1 renal
[61] = test system: KM12 colon
[62] = test system: MCF7 breast

## COC1=Nc2ccccc2S(=O)(=O)C=C1
[1]
  TGI: 620 nM and 27.2 µM
[2]
  TGI: 458 nM and 6.66 µM

## O=C(O)c1ccc2c(c1)nc(Nc1cccc(Cl)c1)c1ccncc12
[3]
  TGI: > 100 µM [sample A, mean of 2 tests] and 8.98 µM [sample B, 1 test]
[4]
  TGI: > 100 µM [sample A, 1 test] and 8.61 µM [sample B, 1 test]

## Nc1nc(N)c2nc(CNc3ccc(C(=O)NC(CCCNC(=O)c4ccccc4C(=O)O)C(=O)O)cc3)cnc2n1 (stereo not given)
[5]
  GI50: 1.43 µM [sample A, mean of 2 tests] and > 100 µM [sample B, mean of 2 tests]
[6]
  GI50: 53.4 µM [sample A, 1 test] and 1.96 nM [sample B, 1 test]
[7]
  GI50: < 10 nM [sample A, 1 test] and 4.64 nM [sample B, 1 test] and 60.6 nM [sample B, mean of 2 tests]
[8]
  GI50: > 100 µM [sample A, 1 test] and 21.6 nM [sample B, mean of 2 tests]
[9]
  GI50: < 10 nM [sample A, mean of 2 tests] and 22.1 nM, > 100 µM [sample B, mean of 2 tests]
[10]
  TGI: > 100 µM [sample A, mean of 2 tests] and > 100 µM [sample B, 1 test] and 72.8 nM [sample B, mean of 2 tests]
[11]
  TGI: 794 nM [sample A, 1 test] and > 100 µM [sample B, mean of 2 tests]
[12]
  GI50: > 100 µM [sample A, 1 test] and 29.2 nM [sample B, mean of 2 tests] and 2.69 µM [sample B, mean of 3 tests]
[13]
  GI50: > 100 µM [sample A, mean of 2 tests] and 0.448 nM [sample B, 1 test]
[14]
  GI50: > 39.5 µM [sample A, mean of 2 tests] and 50.5 nM [sample B, mean of 2 tests]
  TGI: > 100 µM [sample A, mean of 2 tests] and 84.6 nM, > 100 µM [sample B, mean of 2 tests]
[15]
  GI50: 40 nM [sample A, 1 test] and 1.83 nM [sample B, mean of 2 tests]

## COc1ccccc1S(=O)(=O)Nc1ccc2c(c1)CN(C)C(=O)N2
[5]
  TGI: 6.48 µM [sample A, mean of 2 tests] and > 100 µM [sample B, mean of 2 tests]

## N#Cc1ccc(C(c2ccc(C#N)cc2)n2cncn2)cc1
[16]
  GI50: 73.3 µM and > 5 mM
[17]
  GI50: 79.5 µM and > 5 mM
[7]
  GI50: 52.1 µM and > 5 mM
[8]
  GI50: 25.4 µM and > 5 mM
[18]
  GI50: 13.8 nM and > 5 mM
  TGI: 69.2 µM and > 5 mM
[19]
  GI50: 11.9 nM and > 5 mM

## COc1cc2cc(c1Cl)N(C)C(=O)C[C@H](OC(=O)[C@H](C)N(C)C(C)=O)[C@]1(C)O[C@H]1[C@H](C)[C@@H]1C[C@@](O)(NC(=O)O1)[C@H](OC)C=C/C=C(\C)C2
[20]
  TGI: 0.0844 nM, 0.108 nM, 21.1 nM, 1.79 µM, 3.46 µM
[21]
  TGI: 2.16 nM, 30.2 nM [1 test] and 50.8 nM [mean of 10 tests] and 0.0391 nM, 61.4 nM [mean of 5 tests]
[22]
  TGI: 0.631 nM, 0.000538 nM, 46.5 nM, 51.4 µM, 4.6 µM
[23]
  TGI: 0.773, 2.5, 24, 560, 835 nM
[5]
  TGI: 50.7 nM [mean of 3 tests] and 128 µM [mean of 6 tests] and 14.2 µM [mean of 9 tests]
[24]
  TGI: 48.8 nM, > 98.1 µM, 196 µM
[25]
  TGI: 49.7 nM, 57.9 µM, 110 µM
[16]
  TGI: 0.000996 nM [1 test] and 77.8 nM [mean of 11 tests] and 78.4 nM [mean of 6 tests] and 3.18 nM [mean of 7 tests]
[6]
  TGI: 0.776 nM, 42.2 nM, 17.7 µM, 38.7 µM
[26]
  TGI: 58.9 nM, 244 nM [mean of 7 tests] and 7.93 µM [mean of 8 tests]
[27]
  GI50: 0.555 nM and 95.9 nM
  TGI: 10.9 nM and 8.06 µM
[28]
  TGI: 0.000555 nM, 28.6 nM, 29.2 µM, 12.5 µM
[29]
  TGI: 0.0145, 2.5, 7.45, 46.3, 88.3 nM
[30]
  TGI: 57 nM and 250 µM
[31]
  TGI: 0.0506 nM, 2.5 nM, 306 nM, 2.19 µM
[32]
  TGI: 2.09 nM, 46.1 µM, 71.9 µM
[33]
  TGI: 0.0111 nM, 0.00357 nM, 1.02 µM, 640 nM
[17]
  TGI: 0.675 nM, 2.5 nM, 45.1 nM, 1.35 µM, 4.61 µM
[34]
  TGI: 2.5 nM, 15.7 nM, 32.3 µM, 51.4 µM
[35]
  TGI: 0.0145, 0.542, 149, 62 nM
[7]
  TGI: 95.9 nM, 99.3 µM, 140 µM
[36]
  TGI: 1.65 nM, 13.8 nM, 49.2 µM, 85.4 µM
[8]
  TGI: 0.0464, 40, 222, 398 nM
[37]
  TGI: 250 µM [mean of 5 tests] and 58.7 nM [mean of 6 tests]
[38]
  TGI: 2.5 nM [1 test] and 0.000891 nM [mean of 5 tests] and < 16.2 nM [mean of 6 tests]
[39]
  TGI: 14.7 nM and 8.82 µM
[40]
  TGI: 0.0151 nM, 2.5 nM, 43.4 nM, 6.26 µM, 43.3 µM
[9]
  TGI: 49.1 nM, > 92.3 µM, 45.5 µM
[41]
  TGI: 0.0131, 14.1, 66.9, 182 nM
[42]
  TGI: 2.5 nM [1 test] and 0.000117 nM [mean of 3 tests] and 116 nM [mean of 6 tests] and 11.3 nM [mean of 7 tests] and 99.5 nM [mean of 8 tests]
[43]
  TGI: 2.5 nM, 80.9 µM, 187 µM
[44]
  TGI: 0.00273, 47.6, 331, 32.9 nM
[10]
  TGI: 2.5 nM [1 test] and 217 nM [mean of 12 tests] and 0.00269 nM, 890 nM [mean of 5 tests] and 26.3 nM [mean of 6 tests]
[45]
  TGI: 0.00113 nM [1 test] and 21.8 µM [mean of 10 tests] and 64.7 µM [mean of 12 tests] and 31.7 nM [mean of 5 tests]
[3]
  TGI: 15.8 nM, 42 µM, 84.3 µM
[46]
  TGI: 2.5 nM, 62.8 nM, 56.7 µM
[47]
  TGI: 0.668 nM, 61.9 nM, 8.38 µM, 17.6 µM
[11]
  TGI: 0.718 nM, 33.1 nM, 5.81 µM, 506 nM
[12]
  TGI: 0.0133 nM, 0.0429 nM, 59.6 nM, 4.67 µM, 2.6 µM
[48]
  TGI: 0.713, 2.5, 3.92, 157, 381 nM
[4]
  TGI: 0.0783 nM, 50.5 nM, 661 nM, 5.06 µM
[18]
  TGI: 10.6 µM [mean of 11 tests] and 0.0655 nM [mean of 3 tests] and 2.5 µM [mean of 4 tests] and 55 nM [mean of 6 tests]
[13]
  TGI: 1.41 nM, 40.9 µM, 20.8 µM
[49]
  TGI: 44.9 nM and 10.9 µM
[50]
  TGI: 83.3 nM, > 46.4 µM, 238 µM
[51]
  TGI: 0.658 nM, 0.286 nM, 28.6 nM, 66.7 µM, 180 µM
[52]
  TGI: 49 nM, 3.69 µM, 21.4 µM
[53]
  TGI: 0.0505 nM [1 test] and 34.9 nM [mean of 10 tests] and 33.4 nM [mean of 13 tests] and 0.000819 nM, 12.5 nM [mean of 5 tests]
[54]
  TGI: 0.00358 nM, 413 nM, 590 nM
[1]
  TGI: 2.5 nM [1 test] and 5.25 µM [mean of 12 tests] and 55.4 nM, 9.69 µM [mean of 7 tests]
[55]
  TGI: 47.7 nM and 3.95 µM
[56]
  TGI: 2.5 nM, 19.2 nM, 189 nM, 3.72 µM
[2]
  TGI: 0.00101, 0.000363, 63.3, 235, 231 nM
[57]
  TGI: 92.2 nM and 57.8 µM
[58]
  TGI: 44.9 nM and 2.81 µM
[14]
  TGI: 9.87 µM [mean of 11 tests] and 44.7 nM [mean of 5 tests] and 18.5 µM [mean of 8 tests]
[59]
  TGI: 2.5 nM, > 97.7 µM, 97.4 µM
[60]
  TGI: 0.000856 nM, 2.5 nM, 84.6 nM
[61]
  TGI: 0.109 nM [mean of 4 tests] and 51.7 nM, 1.44 µM [mean of 7 tests] and 3.87 µM [mean of 9 tests]
[15]
  TGI: 29.6 nM, 28.6 µM, 88.8 µM
[19]
  TGI: 52.6 nM and 28.2 µM
[62]
  TGI: 2.5 nM, 57.5 nM, 91.9 µM, 15.3 µM

## C/C(=C\c1ccc(Cl)c(Cl)c1)[N+](=O)[O-]
[5]
  TGI: 2.78 µM [sample A] and > 100 µM [sample B]
[25]
  TGI: 3 µM [sample A] and > 100 µM [sample B]
[51]
  TGI: > 100 µM [sample A] and 8.36 µM [sample B]
